# Whole data set: some 110,000 compounds, median “z-score” near -0.1, cut for the highest 2% near 2. This is one part of the list. Activity calls are given as the source filed them.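 Rule for the calls: active = z-score in the third read window above 3 or below -3; inactive = the rest.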
# Target: Metabotropic glutamate receptor 8 (Rattus norvegicus) (UniProt P70579)
# Assay: mGluR8 Gi/Go-coupled signaling modulation – cell-based, rat, thallium flux, HTS, primary screen (AID 488969)
# Settings: HEK293 rat mGluR8, GIRK (G protein-gated inwardly rectifying potassium channel) thallium flux, FluoZin2; at 10 µM; stronger effect = higher value; submaximal glutamate (EC20) added with thallium
# UniProt P70579, sequence (P70579 whole entry, looked up): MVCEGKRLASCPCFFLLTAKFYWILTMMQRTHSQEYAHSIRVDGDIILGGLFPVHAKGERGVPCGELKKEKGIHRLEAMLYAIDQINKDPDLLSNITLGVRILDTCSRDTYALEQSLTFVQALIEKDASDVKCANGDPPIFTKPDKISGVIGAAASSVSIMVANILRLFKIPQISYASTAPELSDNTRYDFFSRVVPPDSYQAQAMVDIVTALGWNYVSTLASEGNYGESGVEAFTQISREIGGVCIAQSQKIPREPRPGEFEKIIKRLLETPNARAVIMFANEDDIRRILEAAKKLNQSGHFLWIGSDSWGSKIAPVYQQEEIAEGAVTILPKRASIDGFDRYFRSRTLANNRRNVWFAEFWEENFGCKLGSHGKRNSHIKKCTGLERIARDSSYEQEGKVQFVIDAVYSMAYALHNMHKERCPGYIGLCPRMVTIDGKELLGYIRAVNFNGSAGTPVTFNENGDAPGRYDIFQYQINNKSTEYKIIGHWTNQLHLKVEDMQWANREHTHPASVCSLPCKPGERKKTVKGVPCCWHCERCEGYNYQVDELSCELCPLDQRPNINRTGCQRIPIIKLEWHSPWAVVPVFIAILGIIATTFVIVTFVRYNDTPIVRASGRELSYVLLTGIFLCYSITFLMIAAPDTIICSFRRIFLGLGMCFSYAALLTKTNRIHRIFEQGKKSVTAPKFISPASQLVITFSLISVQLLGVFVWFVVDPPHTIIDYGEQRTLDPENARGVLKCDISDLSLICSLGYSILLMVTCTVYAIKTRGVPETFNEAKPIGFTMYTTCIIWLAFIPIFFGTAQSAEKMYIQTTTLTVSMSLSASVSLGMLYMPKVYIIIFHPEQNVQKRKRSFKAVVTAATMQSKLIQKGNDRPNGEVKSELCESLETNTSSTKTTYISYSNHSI
row,Structure (SMILES),z-score
1,CC1CC(=O)C(C2c3ccccc3CCN2C(=O)CCl)C(=O)C1 (stereo not drawn),-0.138
2,CCOc1ccc2nc(Cl)c(/C=C/C(=O)c3ccco3)cc2c1,-0.0563
3,COc1ccccc1N1CCN(Cc2nc(N)nc(Nc3ccc(C)cc3)n2)CC1,-0.223
4,COC(=O)c1ccc(-c2nc(-c3ccc(Br)o3)no2)cc1,-0.238
5,O=C(Nc1ccc(Br)cc1)/C(=C/c1cccc([N+](=O)[O-])c1)NC(=O)C1CCCCC1,-0.00443
6,CCCCOC(=O)Nc1nc2ccc(OC)cc2s1,0.178
7,Cc1nc(-c2ccccc2)nc2[nH]c(=O)n(-c3ccccc3)c(=O)c12,-0.181
8,CCOC(=O)CC1=NN(c2ccccc2)C(=O)/C1=C\c1ccc(N(C)C)cc1,-0.241
9,COc1ccc(-c2[nH]nc3oc(=O)cc(C)c23)cc1,-0.514
10,CCOC(=O)c1c(NC(=O)COC(=O)c2cc(OC)c(OC)cc2[N+](=O)[O-])sc(C)c1CC,-0.164
11,Cc1cc(C(=O)NNC(=S)NC(C)c2ccccc2)cs1 (stereo not drawn),-0.281
12,Cc1cccc(NC(=O)CCN2CCN(C/C=C/c3ccccc3)CC2)c1,-0.052
13,O=C(c1cc(-c2ccccc2O)on1)N1CCCC1,1.16
14,COc1ncnc2c1N[C@@](C)(O)c1c(F)c(F)c(F)c(F)c1S2,-0.0317
15,COc1ccccc1NC(=O)Nc1c(C)n(C)n(-c2ccccc2)c1=O,0.24
16,CCN(CC)C(=O)CSc1ncnc2sc(-c3ccccc3)cc12,active: 7.95
17,Cc1cc(NC(=O)/C=C/c2ccc(Cl)cc2)no1,-0.135
18,COC(=O)/C(=N/Nc1cccc(C)c1)N1CCCc2ccccc21,-0.389
19,Cc1ccc(S(=O)(=O)N2CCCC2C(=O)Nc2nc3ccccc3s2)cc1 (stereo not drawn),0.0613
20,COC(=O)CC1SC(=O)NC1=Nc1ccc(O)cc1 (stereo not drawn),-0.0696
21,CCOC(=O)CSc1nc2ccc(N)cc2s1,-0.621
22,COc1ccc(-c2nnc(SCCOc3cccc(C)c3)n2N)cc1,-0.058
23,O=C(c1ccc(Cl)cc1)c1oc2ccccc2c1CS(=O)c1ccc(Cl)cc1 (stereo not drawn),-0.0958

row,Structure (SMILES),z-score
1,O=c1cc(O)c2c(=O)n(-c3ccccc3)c3c(c2o1)CCCCCC3,1.76
2,COc1ccc(-c2cc(=Nc3ccc(C)cc3)c3ccccc3o2)cc1,-0.0733
3,COc1ccc(OC)c(CCNC(=O)CN2C(=O)CC(C)(C)S(=O)(=O)c3ccccc32)c1,0.0628
4,Cc1cccc(-n2c(O)c(C=NCc3ccccn3)c3ccccc3c2=O)c1,-0.159
5,CN(CC(=O)N1CCc2ccccc21)S(=O)(=O)c1ccc(Br)s1,-0.319
6,O=C(/C=C/c1cccc([N+](=O)[O-])c1)NCCSCc1ccc(Cl)cc1,-0.207
7,O=C(/C(=C(\[O-])c1ccccc1)[n+]1ccc2ccccc2c1)c1ccccc1,-0.294
8,CC(NC(=S)Nc1ccccc1)C1COc2ccccc2O1 (stereo not drawn),-2.2e-06
9,O=C(c1cc(C2CC2)on1)N1CCN(c2ccccc2)CC1,0.0624
10,C=CCn1c(SCC(=O)Nc2cc(OC)c(NC(=O)c3ccco3)cc2OC)nnc1-c1ccncc1,-0.521
11,N#Cc1c(/N=C/N2CCOCC2)sc2c1CCCCC2,0.6
12,N#Cc1c(SCC(N)=O)nc2c(c1-c1ccc(OCc3ccccc3)cc1)CCCC2,0.0179
13,C=CCn1c(SCC(=O)c2[nH]c(C)c(C(C)=O)c2C)nnc1-c1ccncc1,0.2
14,CCn1c(Cc2c(C)[nH]c3ccccc23)nnc1SCC(=O)NCc1ccccc1,0.429
15,COc1ccc(C(C)=O)cc1CSc1nnc(-c2ccccc2O)n1-c1ccccc1,-0.352
16,CCN1C(=O)/C(=C/c2c(C)nn(C)c2C)SC1=S,-0.0885
17,Cc1cc(/C=C(\C#N)C(N)=O)c(C)n1-c1ccc(N2CCOCC2)c([N+](=O)[O-])c1,0.779
18,O=C(NCc1ccccc1F)c1cccs1,-0.158
19,CCOC(=O)C(Cc1ccccc1)NC(=O)Cn1nnc(-c2ccc(SC)cc2)n1 (stereo not drawn),1.52
20,O=C(NC(=S)Nc1ccc(NC(=O)c2cccs2)cc1)c1ccco1,0.574
21,Cc1nn(-c2ccccc2)c(N2CCCC2)c1/C=N/NC(=O)c1cc(-c2ccccc2)nc2ccccc12,-0.334
22,COc1ccccc1C(=O)NNC(=O)c1ccccc1F,-0.182
23,CC(=O)c1ccc(NC(=O)c2ccc3nc(-c4ccco4)c(-c4ccco4)nc3c2)cc1,-0.096

row,Structure (SMILES),z-score
1,CC(=O)c1c(C)nn(C(=O)c2cccs2)c1C,-0.172
2,CCn1c(CCNC(=O)c2ccc(OC)c(OC)c2)nc2ccccc21,-0.369
3,O=C(NCc1ccccc1)c1nc2c(nnn2Cc2cccc(Cl)c2)c(=O)[nH]1,-2.18
4,O=C(CSc1ncccc1-c1nc2ccccc2[nH]1)Nc1ccc2c(c1)OCCO2,-0.327
5,COc1ccc2c(CCNC(=O)c3ccco3)c[nH]c2c1,-0.537
6,COc1ccc(S(=O)(=O)Cc2ccc(C(=O)NCCc3ccc(S(N)(=O)=O)cc3)o2)cc1,-0.0374
7,C/C(=N/Nc1nc(-c2ccccc2)cc(-c2ccccc2)n1)c1ccc(N)cc1,0.479
8,O=C(CSCc1ccc(Cl)cc1)NCC1CCCO1 (stereo not drawn),-0.345
9,CNC(=O)CSc1nnc(-c2ccc(S(=O)(=O)N3CCCC3)cc2)n1-c1cccc(C)c1C,-0.443
10,O=c1/c(=C/c2cccc3ccccc23)sc2ncnn12,1.25
11,COc1cc(C(=O)N2CCN(c3cccc(C)c3C)CC2)cc(OC)c1OC,-0.0699
12,COCCNC(=O)c1cn(Cc2c(F)cccc2Cl)nn1,0.915
13,O=C(NCCNS(=O)(=O)c1ccccc1)c1cc(OCC(F)(F)F)ccc1OCC(F)(F)F,0.0829
14,COc1ccc(NC(=O)c2cccs2)cc1,0.303
15,Fc1ccccc1CSc1nc2ccccc2[nH]1,0.129
16,CN1CCN(Cc2nc3c(c(=O)[nH]c(=O)n3C)n2CCc2ccccc2)CC1,-0.00916
17,COc1ccc(C)c2sc(=NC(=O)c3ccccc3)n(C)c12,0.0409
18,N#Cc1c(N2CCN(C(=O)c3ccccc3)CC2)nc(-c2ccccc2)c2c1CCCC2,2.92
19,O=C(CCCn1cnc([N+](=O)[O-])n1)Nc1cccc(Cl)c1Cl,0.147
20,COc1ccc(C(=O)NCc2nnc(SCC(=O)Nc3nc4ccccc4s3)o2)cc1,-0.198
21,Cc1cc(C(=O)OCC(=O)N2CC(=O)Nc3ccccc32)c(C)n1-c1ccc(F)cc1,-0.228
22,CN(C)c1nc(N)nc(CSc2nnnn2-c2cccc3ccccc23)n1,0.0747

# Source: PubChem BioAssay AID488969 (Vanderbilt High Throughput Screening Facility, 2010)
